# Source: PMC12136788
# This is one part of the list.
# T1: UNK ZnF1-6 (called full-length) (human, UniProt Q9C0B0 30-357)
# T1 sequence: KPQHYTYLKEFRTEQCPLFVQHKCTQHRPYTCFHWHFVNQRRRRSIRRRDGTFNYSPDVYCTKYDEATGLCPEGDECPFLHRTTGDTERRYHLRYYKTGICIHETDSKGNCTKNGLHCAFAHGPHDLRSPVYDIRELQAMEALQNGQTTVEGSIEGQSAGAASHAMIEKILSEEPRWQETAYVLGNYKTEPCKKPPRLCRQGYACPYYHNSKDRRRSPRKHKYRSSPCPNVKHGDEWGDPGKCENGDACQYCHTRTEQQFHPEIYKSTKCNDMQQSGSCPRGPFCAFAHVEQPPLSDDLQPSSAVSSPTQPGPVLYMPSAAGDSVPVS
# B1: chr4:52598568:52598706:-|three_prime_utr|ENSG00000109189|control|control|control (ssRNA)
# RNA: GGGAGUUCUACAGUCCGACGAUCGCAUUAUAUCACUAUUGUGAAAAGUCACGGCUUCUGGCUUUUGUUUGAUGAUGACAUUGUAGAGGUUGGUUUGCAGAUUAUUCUCCAGUAGUCAUAGAGCAUCAGUAGUAUUUCGGAGAACAACAGAGGAUUGAGCAUCA
# B2: ENSG00000198589:be:win_4851|CDS|ENSG00000198589|bound_else_gene|NA|bound_elsewhere_windowed (ssRNA)
# RNA: GGGAGUUCUACAGUCCGACGAUCCCAUGUGGAAGUAACUCCUCACACAGCACCUCCUGGUGUCAGUGCAGGCCCAGAUGCAAUCAGCGAGGUGCUAUCUACUCUUUCUUUAGAAGUCAAUAAGUCUCCGGAAACCAAAAAUGACAACAGAGGAUUGAGCAUCA
# B3: chr19:50958630:50959316:-|three_prime_utr|ENSG00000167755|control|control|control (ssRNA)
# RNA: GGGAGUUCUACAGUCCGACGAUCAUGUGACAUCUACCUCCCGACCUACCACCCCACUGGCUGGUUCCAGAACGUCUCUCACCUAGACCUUGCCUCCCCUCCUCUCCUGCCCAGCUCUGACCCUGAUGCUUAAUAAACGCAGCGCAACAGAGGAUUGAGCAUCA
# B4: chr19:38730201:38730298:+|3pUTR|ENSG00000130402|msi1_unk|total|mutant (ssRNA)
# RNA: GGGAGUUCUACAGUCCGACGAUCCAGAGAAUUACUAUUUACUUUAUUAACUUACGGAUUUAUUAUAUAAAUAUAUAUUCACCCCGCAACAUAUCUCUGCCGUCUCUCCUGCUCUCAUAAUGAAGACACCGCCGAUUCUCUGCCCAACAGAGGAUUGAGCAUCA
# B5: chr9:113042727:113044268:-|CDS|ENSG00000136866|control|control|control (ssRNA)
# RNA: GGGAGUUCUACAGUCCGACGAUCCAUCAGAGAGUUCAUACUGGAGAGAAACCGUAUGAGUGUAAUGAAUGUGGGAAAGCCUUUAGCCAAAAGUCUCACCUCAUUGUACAUCAGAGAACUCAUACUGGGGAGAAACCUUAUGAACAACAGAGGAUUGAGCAUCA
# B6: chr3:196319341:196319897:-|three_prime_utr|ENSG00000145107|control|control|control (ssRNA)
# RNA: GGGAGUUCUACAGUCCGACGAUCAUCACAGGUGCGAGUCACCGUGCCUGGCCAACUAAUGAAAAGUUUAAAGAAUUUAUAUCUAGUUUUGGAUGUUAGGCAUGCACACACAAGUGCAUGCACACUCAUACACAUCAUCUCCACCAACAGAGGAUUGAGCAUCA
# B7: chr14:102081487:102081564:-|3pUTR|ENSG00000080824|msi1_unk|total|mutant (ssRNA)
# RNA: GGGAGUUCUACAGUCCGACGAUCGAAGAUAAGAUUUCUGUCUACUAAGUGAUGCUGUGAUACCUCCGGCACUAAAGCAGAGCCCGUAAUGCUUUUUGAGUUUCAUGUUGGUUUAUUUUCACAGAUUGGGGUAACGUGCACUGUCAACAGAGGAUUGAGCAUCA
# B8: ENSG00000136935:stop:overlap|stop_codon|ENSG00000136935|stop_codon|NA|stop_codon (ssRNA)
# RNA: GGGAGUUCUACAGUCCGACGAUCAACCAGCUCCCAAGGGCAGCAUCCGGCCGUCUAUCUCAAACCCUCGGAUACCAUGGUCCUAGAGGGGACUACCCAAGGAUGGAGCUCCGUGGGUUGACACUUUUUCUGUGAAAAGAACACCAACAGAGGAUUGAGCAUCA
# B9: chr1:111147767:111147876:+|CDS|ENSG00000134255|unk|total|mutant (ssRNA)
# RNA: GGGAGUUCUACAGUCCGACGAUCAUUAAAUAAAUUGUUUCAGUUACCAACACCACCAUUGUCAAGACACCAACUAAAGCGGCCCGAAGAACACAGAUAUCAAAGUGCUGGACGGUCCCUGCUUGAGCCCUUAAUGCAAGGGUACAACAGAGGAUUGAGCAUCA
# B10: chr1:20742972:20743075:-|3pUTR|ENSG00000127483|unk|total|mutant (ssRNA)
# RNA: GGGAGUUCUACAGUCCGACGAUCUAACCCUUUCUUAUUUGUAUUUGUUUCCGUAUUGUGAAGUUGUGUUAAACCGUACCCGCCCGAAAUACAAAUUUCUGGUUAUCAUUUCUCUUCCCUGUGGCACUUGACAUUUUAAUUGUCCAACAGAGGAUUGAGCAUCA
# B11: ENSG00000155506:stop:overlap|stop_codon|ENSG00000155506|stop_codon|NA|stop_codon (ssRNA)
# RNA: GGGAGUUCUACAGUCCGACGAUCAGAACGCAUUGCCGCCGGUCCUGACCACCGUGAACGGACAGUCCCCCCCAGAUACCCUUUAGGGCUGGUUUGCCUUAGUUGAGGAAGAAGACCCUCCUAGGGACUCUGUCUGCCAUCCACCAACAGAGGAUUGAGCAUCA
# B12: chr21:36896991:36897096:-|CDS|ENSG00000159267|unk|FALSE|bound_elsewhere (ssRNA)
# RNA: GGGAGUUCUACAGUCCGACGAUCCAGUGGCUUGGGAAACAUGUGGACUCCGAGGGAGAAAUAAAAUCCGGCCAGCUCUCUCUUAGAUUUGUUUCAUCCUACGUGUCUGAAGUAGAAAUAACCCCAUCUUGUAUACCUGUGGUGCAACAGAGGAUUGAGCAUCA
# B13: chr6:4954605:4954706:+|3pUTR|ENSG00000153046|msi1|total|mutant (ssRNA)
# RNA: GGGAGUUCUACAGUCCGACGAUCGGAUAAAUACUUCUGAUGAAAAAUCCGCUGAGGAGCAUACCCCAAACCAGACAUAUGCUCCGGAUUCAUGCUGAGAUAUCAAUUGGUUUCCCCUUCUUUUUAAAAUACGUCCAGUUCUUACAACAGAGGAUUGAGCAUCA
# B14: ENSG00000156853:stop:overlap|stop_codon|ENSG00000156853|stop_codon|NA|stop_codon (ssRNA)
# RNA: GGGAGUUCUACAGUCCGACGAUCCCCCAAACUGUAGCCCUAGAUCUGCUAUCGGGGGCUCCAGUCAGAGGGGCAACGCCCAUUAGAAGGGGAAGGACUGCCUACGUUCAUUUCAUUUUAUGGAGGGUCCCAGAAAAGGGAAGGCAACAGAGGAUUGAGCAUCA
# B15: chr17:35577220:35577322:-|CDS|ENSG00000108733|unk|FALSE|unique (ssRNA)
# RNA: GGGAGUUCUACAGUCCGACGAUCUCUAUUAUGUUCCUGGUUCUUCUUCCCUAUCUGAAAGUGAAGCUGGAGAAGCUGGUUUCUAGCCUGAGAGAAGAGGAUGAAUAUUCUAUUCAUCCCCCUUCUUCCCGCUGGAAACGAUUUCAACAGAGGAUUGAGCAUCA
# B16: chr3:48621462:48621756:-|CDS|ENSG00000183396|control|control|control (ssRNA)
# RNA: GGGAGUUCUACAGUCCGACGAUCUACCAGGUGGGGCUGGACUUGCAGCCCUGGGGGUGUCAGCCAAAGAGUGUGGAGGGCUGUAGGGGUGGCCUGAGCUGUCCUGGCUACUGGCUGGGCCCUGGAGCAAGCCGCAUCUACCCCCAACAGAGGAUUGAGCAUCA
# B17: chr12:21491601:21491717:-|CDS|ENSG00000004700|unk|FALSE|unique (ssRNA)
# RNA: GGGAGUUCUACAGUCCGACGAUCGCUGCCUCCCAUAGCUCUAACUGAGGAACUGGAUUCUAUAACCAGUGAGCUACAUGCAGUAGAAAUUCAAAUUCAAGAACUUACGGAAAGGCAACAAGAGCUUAUUCAGAAAAAAAAAGUCAACAGAGGAUUGAGCAUCA
# B18: chr9:19276226:19276327:+|CDS|ENSG00000137145|unk|FALSE|unique (ssRNA)
# RNA: GGGAGUUCUACAGUCCGACGAUCCUUUGUCGUAGCUGGUCUCACUGACACAUCUACUCUUUUGGAUCAAGAAAUAAAUCGUUUAGAUACUAAGUCAACUGGACCUAAAGCUCCAAUUACAGACAUUGCCAUUAUUAUCAAAUCCAACAGAGGAUUGAGCAUCA
# B19: chr21:14485227:14485911:-|three_prime_utr|ENSG00000155307|control|control|control (ssRNA)
# RNA: GGGAGUUCUACAGUCCGACGAUCCCCAACUAUAUAUCUACAGAUGCAUUCCAUUUUAACUCUUCUUGAGCUAAAACGUCAAAUAGGAGAGGAAGAUAAGAUAAAUAUUUGUAAAUAAAACCUAAAGUUUAAAUGUUUUAAUCUCAACAGAGGAUUGAGCAUCA
# B20: chr5:36035020:36035974:-|three_prime_utr|ENSG00000168671|control|control|control (ssRNA)
# RNA: GGGAGUUCUACAGUCCGACGAUCAGACAUAAGGCCAGGUGCAGCCUUGGCGGGGUCUGUUUGGUGGGCGAUGUCACCAUUUCUAGGGAGCUUCCCACUAGUUCUGGCAGCCCCAUUCUCUAGUCCUUCUAGUUAUCUCCUGUUCAACAGAGGAUUGAGCAUCA
# B21: chr6:77462233:77463403:-|CDS|ENSG00000135312|control|control|control (ssRNA)
# RNA: GGGAGUUCUACAGUCCGACGAUCACCCUUCUUCAUCAUCUCCCUAGUGAUGCCUAUCUGCAAAGAUGCCUGCUGGUUCCACCUAGCCAUCUUUGACUUCUUCACAUGGCUGGGCUAUCUCAACUCCCUCAUCAACCCCAUAAUCAACAGAGGAUUGAGCAUCA
# B22: chr1:234405902:234406099:-|CDS|ENSG00000059588|control|control|control (ssRNA)
# RNA: GGGAGUUCUACAGUCCGACGAUCCCUUAUAGUUGUGCUGCAGUGGUGUUUCAAUCACAAUUUUAGUGUUCGACUGUAUGCUUUAGUUGCUCUUAAGAAACUCUGGACUGUGUGUAAAGUGUUAAGUGUUGAAGAAUUUGAUGCCAACAGAGGAUUGAGCAUCA
# Target: T1, UNK ZnF1-6 (called full-length)
# Experiment: nsRBNS (natural sequence RNA bind-n-seq); RBNS binding buffer (assumed for nsRBNS): 25 mM Tris pH 7.5, 150 mM KCl, 3 mM MgCl2, 0.01% Triton X-100, 500 ug/ml BSA, 20 U/ml SUPERase-In, 4 C; UNK is unkempt and MSI1 is Musashi-1; names of the RNAs are library labels; protein concentration not given here; high values mean tight binding
row,Binder,binding signal
1,B1,1.6 enrichment R
2,B2,0.915 enrichment R
3,B3,1.13 enrichment R
4,B4,1.33 enrichment R
5,B5,0.346 enrichment R
6,B6,0.837 enrichment R
7,B7,0.414 enrichment R
8,B8,0.711 enrichment R
9,B9,0.59 enrichment R
10,B10,0.704 enrichment R
11,B11,0.761 enrichment R
12,B12,1.01 enrichment R
13,B13,0.266 enrichment R
14,B14,0.702 enrichment R
15,B15,0.351 enrichment R
16,B16,0.88 enrichment R
17,B17,0.594 enrichment R
18,B18,0.56 enrichment R
19,B19,0.616 enrichment R
20,B20,1.32 enrichment R
21,B21,0.845 enrichment R
22,B22,0.664 enrichment R
